Reference: patent US9101137B2 (priority 2011, dated 2015)
Where a name gives a salt, the structure may show the parent alone.

System: rice leaffolder
Test: whole plant or invertebrate
Settings: Cnaphalocrocis medinalis, 72 h, read-out: Adjusted insect mortality (%)
Description: 10 mg of each of pyribencarb and cartap hydrochloride was each dissolved in 1 ml of acetone (manufactured by Wako Pure Chem Industries, Ltd.) containing Sorgen TW-20 (manufactured by Dai-ichi Kogyo Seiyaku Co., Ltd) and each solution was diluted with water containing 0.02% by volume of a spreader (trade name: Dain (registered trade name), manufactured by Sumitomo Chemical Takeda Agro Company) to attain a predetermined concentration. The water-diluted solution of pyribencarb was mixed with the water-diluted solution of cartap hydrochloride to prepare test sample solutions.
10 mL of each of the test sample solutions per plant was sprayed to 2.5 leaf stage seedlings of rice (Oryza sativa, variety: Nanatsuboshi) planted in a paper pot. After air drying, the rice seedlings were placed in plastic cups (diameter 90 mm, height 30 mm) containing water. Ten first instar larvae of rice leaffolder were released in the cups and the cups were placed in a room (25° C., humidity 60%). […] Based on the observation results, the insect mortality was calculated by equation 2) and the adjusted insect mortality was calculated by equation 3). The tests were carried out in duplicate. […]

SMILES	mortality at 100 ppm	mortality at 10 ppm
CN(C)C(CSC(N)=O)CSC(N)=O [Cartap hydrochloride, cartap hydrochloride]	52.6%	
COC(=O)NCc1cc(/C(C)=N/OCc2cccc(C)n2)ccc1Cl [Pyribencarb, pyribencarb]		0%
